This passage reports Ki results from US7592316B2, “Peptides as NS3-serine protease inhibitors of hepatitis C virus” (Schering Corporation, priority 2000, dated 2009).

*1 amine or outer side, *2 acyl side, *3 side chain or, on linkers, in order; H or OH if unused. Where a SMILES comes first, the peptide text is derived from it. [ ]: non-standard residue; d: D form. The star is where a group is joined. ξ: configuration not given here. Pro(3R,4S-CMe2) = CC1(C)[C@@H]2[C@@H](C(=O)O)NC[C@@H]21; Pro(3S,4R-CCl2) = O=C(O)[C@H]1NC[C@H]2[C@@H]1C2(Cl)Cl; Pro(3S,4R-CMe2) = CC1(C)[C@H]2[C@@H](C(=O)O)NC[C@H]21; X50 = O=C(C(=O)[*:2])C(CCCC(F)(F)F)N[*:1]; X67 = O=C(C(=O)[*:2])C(CC1CC1(F)F)N[*:1]; X96 = CCC(F)(F)CC(N[*:1])C(=O)C(=O)[*:2]; X32 = O=C(C(=O)[*:2])C(CC1CCC1)N[*:1]; X84 = O=C(C(=O)[*:2])C(CC1COC1)N[*:1]; X89 = O=C(C(=O)[*:2])C(N[*:1])C1CCCC1; X100 = O=C(C(=O)[*:2])C(N[*:1])C1CC1; X47 = O=C(C(=O)[*:2])C(N[*:1])C1CCC1; X8 = O=C(C(=O)[*:2])C(CC1CC1)N[*:1]; X6 = C=CCCC(N[*:1])C(=O)C(=O)[*:2]; Igl = N[C@H](C(=O)O)C1Cc2ccccc2C1; X4 = CCCCC(N[*:1])C(=O)C(=O)[*:2]; X2 = CCCC(N[*:1])C(=O)C(=O)[*:2]; Chg = N[C@H](C(=O)O)C1CCCCC1; Phg = N[C@H](C(=O)O)c1ccccc1; Tle = CC(C)(C)[C@H](N)C(=O)O; ξPhg = NC(C(=O)O)c1ccccc1; CO = O=C([*:1])[*:2]; NHtBu = CC(C)(C)N*; NHiPr = CC(C)N*

The target of one assay is HCV NS3/NS4A protease (strain 1a) (Hepatitis C virus genotype 1a, UniProt P27958). Nature of the assay: biochemical. The note with it: Table 5; HCV NS3/NS4A protease, spectrophotometric assay, 30° C., pH 6.5; read-out: Ki* Range.
As a reminder, the Ki is the equilibrium dissociation constant of an inhibitor or competing ligand from its target. As to `CCCC(NC(=O)[C@@H]1[C@@H]2[C@H](CN1C(=O)[C@@H](NC(=O)NC(C)C)C(C)(C)C)C2(C)C)C(=O)C(=O)NCC(=O)N[C@H](C(=O)N(C)C)c1ccccc1` (stereo partly drawn) ({NHiPr-CO}-[Tle][Pro(3R,4S-CMe2)][X2]G[Phg]-NMe2), the Ki fell in the range of 1 to 100 nM. On to `CCCCC(NC(=O)[C@@H]1[C@H]2[C@@H](CN1C(=O)[C@@H](NC(=O)NC(C)C)C(C)(C)C)C2(C)C)C(=O)C(=O)NCC(=O)N[C@H](C(=O)N(C)C)c1ccccc1` (stereo partly drawn) ({NHiPr-CO}-[Tle][Pro(3S,4R-CMe2)][X4]G[Phg]-NMe2), for which the Ki lay in the range of 1 to 100 nM. On the same count and under the same terms, under `C=CCCC(NC(=O)[C@@H]1[C@H]2[C@@H](CN1C(=O)[C@@H](NC(=O)NC(C)(C)C)C1Cc3ccccc3C1)C2(C)C)C(=O)C(=O)NCC(=O)N[C@H](C(=O)N(C)C)c1ccccc1` (stereo partly drawn) ({NHtBu-CO}-[Igl][Pro(3S,4R-CMe2)][X6]G[Phg]-NMe2) stands 1 to 100 nM. Same read-out and setting: the same measure for `CCCC(NC(=O)[C@@H]1[C@@H]2[C@H](CN1C(=O)[C@@H](NC(=O)NC(C)(C)C)C(C)(C)C)C2(C)C)C(=O)C(=O)NCC(=O)N[C@H](C(=O)N(C)C)c1ccccc1` (stereo partly drawn) ({NHtBu-CO}-[Tle][Pro(3R,4S-CMe2)][X2]G[Phg]-NMe2): 1 to 100 nM; for `CCCCC(NC(=O)[C@@H]1[C@H]2[C@@H](CN1C(=O)[C@@H](NC(=O)NC(C)(C)C)C(C)(C)C)C2(C)C)C(=O)C(=O)NCC(=O)N[C@H](C(=O)N(C)C)c1ccccc1` (stereo partly drawn) ({NHtBu-CO}-[Tle][Pro(3S,4R-CMe2)][X4]G[Phg]-NMe2): 1 to 100 nM.

Staying with this assay, now noted: Table 6; HCV NS3/NS4A protease, 30° C., pH 6.5; read-out: Ki*.
`CC(C)[C@H](NC(=O)NC(C)(C)C)C(=O)N1C[C@H]2[C@@H]([C@H]1C(=O)NC(CC1CC1)C(=O)C(=O)NCC(=O)N[C@H](C(=O)N(C)C)c1ccccc1)C2(C)C` (stereo partly drawn) ({NHtBu-CO}-V[Pro(3R,4S-CMe2)][X8]G[Phg]-NMe2): the Ki lay in the range of 1 to 100 nM.

As to `CN(C)C(=O)[C@@H](NC(=O)CNC(=O)C(=O)C(CC1CC1)NC(=O)[C@@H]1[C@@H]2[C@H](CN1C(=O)[C@@H](NC(=O)NC(C)(C)C)C1CCCCC1)C2(C)C)c1ccccc1` (stereo partly drawn) ({NHtBu-CO}-[Chg][Pro(3R,4S-CMe2)][X8]G[Phg]-NMe2), the Ki lay within 1 to 100 nM. Still for that read-out and setting: under `CN(C)C(=O)[C@@H](NC(=O)CNC(=O)C(=O)C(CC1CC1)NC(=O)[C@@H]1[C@@H]2[C@H](CN1C(=O)[C@@H](NC(=O)NC(C)(C)C)C(C)(C)C)C2(C)C)c1ccccc1` (stereo partly drawn) ({NHtBu-CO}-[Tle][Pro(3R,4S-CMe2)][X8]G[Phg]-NMe2) stands 1 to 100 nM; under `CN(C)C(=O)[C@@H](NC(=O)CNC(=O)C(=O)C(CC1CCC1)NC(=O)[C@@H]1[C@@H]2[C@H](CN1C(=O)[C@@H](NC(=O)NC(C)(C)C)C(C)(C)C)C2(C)C)c1ccccc1` (stereo partly drawn) ({NHtBu-CO}-[Tle][Pro(3R,4S-CMe2)][X32]G[Phg]-NMe2), 1 to 100 nM; under `CN(C)C(=O)[C@@H](NC(=O)CNC(=O)C(=O)C(NC(=O)[C@@H]1[C@@H]2[C@H](CN1C(=O)[C@@H](NC(=O)NC(C)(C)C)C(C)(C)C)C2(C)C)C1CCC1)c1ccccc1` (stereo partly drawn) ({NHtBu-CO}-[Tle][Pro(3R,4S-CMe2)][X47]G[Phg]-NMe2), 1 to 100 nM. On to `CN(C)C(=O)[C@@H](NC(=O)CNC(=O)C(=O)C(CCCC(F)(F)F)NC(=O)[C@@H]1[C@@H]2[C@H](CN1C(=O)[C@@H](NC(=O)NC(C)(C)C)C(C)(C)C)C2(C)C)c1ccccc1` (stereo partly drawn) ({NHtBu-CO}-[Tle][Pro(3R,4S-CMe2)][X50]G[Phg]-NMe2), for which the Ki lay within 1 to 100 nM. Take `CN(C)C(=O)C(NC(=O)CNC(=O)C(=O)C(CC1CC1(F)F)NC(=O)[C@@H]1[C@@H]2[C@H](CN1C(=O)[C@@H](NC(=O)NC(C)(C)C)C(C)(C)C)C2(C)C)c1ccccc1` (stereo partly drawn) ({NHtBu-CO}-[Tle][Pro(3R,4S-CMe2)][X67]G[ξPhg]-NMe2): the inhibition constant (Ki) lay in the range of 1 to 100 nM. With `CN(C)C(=O)[C@@H](NC(=O)CNC(=O)C(=O)C(CC1COC1)NC(=O)[C@@H]1[C@@H]2[C@H](CN1C(=O)[C@@H](NC(=O)NC(C)(C)C)C(C)(C)C)C2(C)C)c1ccccc1` (stereo partly drawn) ({NHtBu-CO}-[Tle][Pro(3R,4S-CMe2)][X84]G[Phg]-NMe2), the Ki fell in the range of 1 to 100 nM.

Regarding `CN(C)C(=O)[C@@H](NC(=O)CNC(=O)C(=O)C(NC(=O)[C@@H]1[C@@H]2[C@H](CN1C(=O)[C@@H](NC(=O)NC(C)(C)C)C(C)(C)C)C2(C)C)C1CCCC1)c1ccccc1` (stereo partly drawn) ({NHtBu-CO}-[Tle][Pro(3R,4S-CMe2)][X89]G[Phg]-NMe2), the Ki was 1 to 100 nM. For the molecule `CCC(F)(F)CC(NC(=O)[C@@H]1[C@@H]2[C@H](CN1C(=O)[C@@H](NC(=O)NC(C)(C)C)C(C)(C)C)C2(C)C)C(=O)C(=O)NCC(=O)N[C@H](C(=O)N(C)C)c1ccccc1` (stereo partly drawn) ({NHtBu-CO}-[Tle][Pro(3R,4S-CMe2)][X96]G[Phg]-NMe2), the inhibitory constant (Ki) fell in the range of 1 to 100 nM. With `CN(C)C(=O)[C@@H](NC(=O)CNC(=O)C(=O)C(NC(=O)[C@@H]1[C@@H]2[C@H](CN1C(=O)[C@@H](NC(=O)NC(C)(C)C)C(C)(C)C)C2(C)C)C1CC1)c1ccccc1` (stereo partly drawn) ({NHtBu-CO}-[Tle][Pro(3R,4S-CMe2)][X100]G[Phg]-NMe2), the Ki was 1 to 100 nM. Take `CN(C)C(=O)C(NC(=O)CNC(=O)C(=O)C(CC1CC1)NC(=O)[C@@H]1[C@@H]2[C@H](CN1C(=O)[C@@H](NC(=O)NC(C)(C)C)C(C)(C)C)C2(Cl)Cl)c1ccccc1` (stereo partly drawn) ({NHtBu-CO}-[Tle][Pro(3S,4R-CCl2)][X8]G[ξPhg]-NMe2): the inhibitory constant (Ki) was in the range of 1 to 100 nM.
